Source: PubChem BioAssay AID504832 (National Center for Advancing Translational Sciences (NCATS), 2011)
In all, about 310,000 compounds went through this assay and about 18,000 (5.8%) were called active. Inconclusive means that the source gave no clear call. Such entries were picked first, then a sample of the others. Calls come from the whole dose curve; as a rule, active = well fitted inhibition curve with a large enough effect; inconclusive = small, poorly fitted or top-dose-only effect, or another doubt; inactive = no such curve, though single readings can be large or run the other way. No potency is given beside an inconclusive call; the fits are too rough.

Experiment: Primary qHTS for delayed death inhibitors of the malarial parasite plastid, 48 hour incubation
Conditions: P. falciparum luciferase growth in erythrocytes; series mostly up to 28.7 µM; activity change, negative = inhibition: at the top concentration
Method in brief: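 Compounds are pin-transferred into medium, infected erythrocytes (2% hematocrit, 0.1% parasitemia final) are added, and plates sit one parasite generation at 37 C in 5% CO2. Detection reagent is then added and luminescence measured.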
% is set by controls: 0 for no effect and ±100 for the full control effect; potency is the fitted concentration of half-maximal effect; tags give direction and shape of the fitted curve.

SMILES | Potency | activity change, negative = inhibition
CCN1CCN(C2=C(NS(=O)(=O)c3ccc(NC(C)=O)cc3)C(=O)c3ccccc3C2=O)CC1 | inconclusive [inhibitor, single point] | 
Cc1ccc(OCC(=O)NCC(=O)Nc2ccc(F)cc2)c([N+](=O)[O-])n1 |  | inactive: 23.6%
Cc1noc(C)c1C(=O)OC(C)C(=O)Nc1ccc(C(N)=O)cc1 (stereo not drawn) | inconclusive [inhibitor, single point] | 
O=C(NCC(=O)c1ccccc1)OCc1ccc([N+](=O)[O-])cc1 |  | inactive: -1.89%
CC(=O)c1cccc(OCC(=O)N(Cc2ccco2)c2c(N)n(Cc3ccccc3)c(=O)[nH]c2=O)c1 | inconclusive [inhibitor, full curve, poor fit] | 
Cc1cc(=O)[nH]c(SCC(=O)Nc2cc(S(=O)(=O)N3CCCC3)ccc2Cl)n1 |  | inactive: -15.6%
Cn1cnnc1Sc1ccc(C(=O)OCC(=O)Nc2cc(Cl)cc(Cl)c2)cc1[N+](=O)[O-] |  | inactive: 10.7%
COc1cc(NC(=S)NC(=O)c2ccccc2C)ccc1NC(=O)c1cccs1 | inconclusive [inhibitor, single point] | 
O=C(Nc1ccnn1C1CCN(C/C=C/c2ccccc2)CC1)c1cccc(F)c1 | inconclusive [inhibitor, partial curve, poor fit] | 
Cc1ccc(C)c(OCC(=O)O/N=C(\N)c2cccnc2)c1 | inconclusive [inhibitor, single point] | 
CCC(C)NC(=O)c1[nH]c(C)c(C(=O)OC)c1C (stereo not drawn) | inconclusive [inhibitor, full curve, poor fit] | 
Cc1cccc(/C=N/NC(=O)c2ccc(F)cc2)n1 | inconclusive [inhibitor, single point] | 
O=C(Nc1ccc(N2CCOCC2)cc1)C1CCN(S(=O)(=O)c2ccccc2F)CC1 |  | inactive: -15.2%
Cc1ccc(C)c(/C(O)=C2/C(=O)C(=O)N(CCN3CCOCC3)C2c2ccco2)c1 (stereo not drawn) | inconclusive [inhibitor, single point] | 
O=c1c(-c2nnc(SCc3ccc(Cl)cc3Cl)o2)cccn1Cc1ccccc1 | inconclusive [inhibitor, partial curve] | 
Cc1c(C(=O)N(Cc2nnc(-c3ccccc3Cl)o2)C2CC2)oc2ccccc12 | inconclusive [inhibitor, partial curve, poor fit] | 
O=C(COc1ccc2ccccc2c1)N1CCN(c2ccccc2O)CC1 | inconclusive [inhibitor, single point] | 
Cc1ccc(C(=O)COc2ncnc3cc(Cl)ccc23)cc1 | inconclusive [inhibitor, partial curve] | 
COc1ccc(/C=N/NC(=O)c2cccc(NC(=O)c3ccc(Cl)cc3)c2)c(OC)c1 |  | inactive: 8.69%
CC(=O)c1ccc(N2CCN(C(=O)C3CCCN3S(=O)(=O)c3cccc4nsnc34)CC2)cc1 (stereo not drawn) | inconclusive [inhibitor, single point] | 
CCOc1ccc(C2=Nn3c(nnc3-c3ccco3)SC2)cc1 | inconclusive [inhibitor, full curve] | 
N#C/C(=N\Nc1ccc(F)cc1)C(=N)N1CCCCC1 |  | inactive: 120%

SMILES | Potency | activity change, negative = inhibition
O=C(O)CCCC(=O)Nc1ccccc1Oc1ccccc1 | inconclusive [inhibitor, single point] | 
O=C(Nc1ccc(O)c(-c2nc3ccccc3o2)c1)C1(c2ccccc2)CCCC1 | active: 14.7 µM | 
COc1ccccc1OCC(=O)NNC(=S)NC(=O)c1ccco1 | inconclusive [inhibitor, single point] | 
C#CCOCCOCCOCCNc1nc(N2CCN(C(=O)[C@H]([C@@H](C)CC)n3cc([C@@H](N)Cc4ccc(O)cc4)nn3)CC2)nc(N2CCN(C(=O)[C@H](Cc3ccc(O)cc3)n3cc([C@@H](N)C(C)CC)nn3)CC2)n1 (stereo partly drawn) | inconclusive [inhibitor, partial curve] | 
CCN(CC)CCN(C(=O)c1ccc(S(=O)(=O)N(C)C2CCCCC2)cc1)c1nc2c(C)cccc2s1 | inconclusive [inhibitor, single point] | 
CC1CCC(NC(=O)N(CCCl)N=O)CC1 (stereo not drawn) | active: 5.36 µM | 
CSC1=C(C#N)C2(CCCC2)C(C#N)=C(N)N1 | inconclusive [inhibitor, single point] | 
COc1ccc(C(=O)Nc2nc3c(s2)CCCC3)cc1S(=O)(=O)N1CCCc2ccccc21 | active: 13.1 µM | 
Nc1nc(-c2ccc(Cl)cc2)cc(C(F)(F)F)n1 |  | inactive: 26.7%
O=C(NCCCN1CCCC1=O)c1ccc2c(=O)n(-c3ccc(F)cc3)c(=S)[nH]c2c1 |  | inactive: -9.53%
CCCNC(=O)C(CC)NC(=O)c1cccc([N+](=O)[O-])c1 (stereo not drawn) | inconclusive [inhibitor, single point] | 
COCCN(C(=O)C(C)C)c1nnc(-c2cccc(C)c2)s1 | inconclusive [inhibitor, single point] | 
O=C(COc1ccccc1)NC1CCN(Cc2ccccc2)CC1 | inconclusive [inhibitor, single point] | 
Cc1ccc(NS(=O)(=O)c2ccc3c(c2)NC(=O)C(C)C(=O)N3)c(Cl)c1 (stereo not drawn) |  | inactive: 6.77%
Cc1cccc(NC(=O)CNC(=O)c2cc(C3CC3)nn2-c2ccccc2)c1C | inconclusive [inhibitor, partial curve, poor fit] | 
Cc1nc2c(-c3ccccc3)c(C)[nH]n2c(=O)c1Cc1ccccc1 | active: 10.4 µM | 
COc1cccc(OC)c1NC(=O)CN(C)S(=O)(=O)c1ccc2c(c1)OCCO2 |  | inactive: -0.807%
COc1ccccc1C(CNC(=O)C1COc2ccccc2O1)N1CCCC1 (stereo not drawn) | inconclusive [inhibitor, single point] | 
Cc1ccc(NS(=O)(=O)c2c(C)[nH]c(C)c2C(=O)N2CCCCC2)c(C)c1 | inconclusive [inhibitor, partial curve, poor fit] | 
Oc1ccccc1C=NCc1ccccc1 |  | inactive: -26.9%
COc1cccc(NS(=O)(=O)c2cc(C)sc2C)c1 | inconclusive [inhibitor, single point] | 
